Experiments:
Experiment in all cases: GST pull-down, LC-MS/MS
Sfxn5_IPI:IPI00221602.1 = biological target: T1, Sfxn5_IPI:IPI00221602.1 (mouse, UniProt Q925N0 1-342)
T1 sequence (looked up): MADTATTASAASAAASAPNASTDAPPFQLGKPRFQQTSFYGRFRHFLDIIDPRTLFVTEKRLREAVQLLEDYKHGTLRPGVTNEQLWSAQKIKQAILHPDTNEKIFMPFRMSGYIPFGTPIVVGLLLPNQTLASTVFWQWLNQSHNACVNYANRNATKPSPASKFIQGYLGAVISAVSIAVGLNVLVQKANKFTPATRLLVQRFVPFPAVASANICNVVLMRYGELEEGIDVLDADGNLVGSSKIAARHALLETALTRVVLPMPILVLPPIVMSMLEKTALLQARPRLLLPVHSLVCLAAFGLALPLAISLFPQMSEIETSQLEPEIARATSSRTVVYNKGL

[1] = biological target: T2, Ccdc127_IPI:IPI00131843.3 (mouse, UniProt Q3TC33 1-260, limits assumed)
T2 sequence (looked up): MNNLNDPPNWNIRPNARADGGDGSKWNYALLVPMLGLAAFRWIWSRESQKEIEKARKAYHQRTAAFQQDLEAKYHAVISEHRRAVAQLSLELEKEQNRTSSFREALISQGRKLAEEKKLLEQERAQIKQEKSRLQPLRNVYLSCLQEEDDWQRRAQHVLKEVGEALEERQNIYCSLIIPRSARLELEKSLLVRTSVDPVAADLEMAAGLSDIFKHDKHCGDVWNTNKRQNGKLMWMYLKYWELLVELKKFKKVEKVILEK

mt-Co2_IPI:IPI00131176.1 = mt-Co2_IPI:IPI00131176.1 (mouse, UniProt P00405 1-227)
mt-Co2_IPI:IPI00131176.1, sequence (P00405 whole entry): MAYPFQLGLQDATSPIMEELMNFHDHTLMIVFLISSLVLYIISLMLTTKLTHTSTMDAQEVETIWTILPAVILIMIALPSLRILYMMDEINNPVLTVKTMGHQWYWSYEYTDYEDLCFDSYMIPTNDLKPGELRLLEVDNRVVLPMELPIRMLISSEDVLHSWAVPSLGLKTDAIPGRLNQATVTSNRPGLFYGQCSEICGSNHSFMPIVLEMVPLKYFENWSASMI
Atp1a3_IPI:IPI00122048.2 = Atp1a3_IPI:IPI00122048.2 (mouse, UniProt Q6PIC6)
Tuba4a_IPI:IPI00117350.1 = Tuba4a_IPI:IPI00117350.1 (mouse, UniProt P68368 1-448)
Afg3l2_IPI:IPI00170357.5 = Afg3l2_IPI:IPI00170357.5 (mouse, UniProt Q8JZQ2 67-802)
Afg3l2_IPI:IPI00170357.5, sequence (Q8JZQ2 67-802 limits assumed): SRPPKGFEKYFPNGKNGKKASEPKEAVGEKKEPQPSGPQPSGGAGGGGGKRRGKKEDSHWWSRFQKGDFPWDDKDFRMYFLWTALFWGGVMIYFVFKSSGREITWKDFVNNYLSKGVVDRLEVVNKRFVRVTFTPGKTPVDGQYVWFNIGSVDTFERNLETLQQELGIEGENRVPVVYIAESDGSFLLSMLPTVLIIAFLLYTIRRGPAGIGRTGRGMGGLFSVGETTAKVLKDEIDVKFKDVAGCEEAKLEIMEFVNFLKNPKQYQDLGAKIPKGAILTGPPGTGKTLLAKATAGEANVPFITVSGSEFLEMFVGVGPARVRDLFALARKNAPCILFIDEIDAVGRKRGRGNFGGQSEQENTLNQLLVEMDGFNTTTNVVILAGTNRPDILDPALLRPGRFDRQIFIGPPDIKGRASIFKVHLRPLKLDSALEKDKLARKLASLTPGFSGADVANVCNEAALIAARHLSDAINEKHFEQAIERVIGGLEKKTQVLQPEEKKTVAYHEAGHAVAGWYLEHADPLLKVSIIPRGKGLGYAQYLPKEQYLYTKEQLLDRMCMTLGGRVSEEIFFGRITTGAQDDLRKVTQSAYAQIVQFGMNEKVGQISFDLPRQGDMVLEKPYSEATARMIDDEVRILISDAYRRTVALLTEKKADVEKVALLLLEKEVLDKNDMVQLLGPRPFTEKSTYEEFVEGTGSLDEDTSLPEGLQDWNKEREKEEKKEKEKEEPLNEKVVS
Dsp_IPI:IPI00553419.3 = Dsp_IPI:IPI00553419.3 (mouse, UniProt E9Q557 1-2883, limits assumed)
Dsp_IPI:IPI00553419.3, sequence (E9Q557 whole entry): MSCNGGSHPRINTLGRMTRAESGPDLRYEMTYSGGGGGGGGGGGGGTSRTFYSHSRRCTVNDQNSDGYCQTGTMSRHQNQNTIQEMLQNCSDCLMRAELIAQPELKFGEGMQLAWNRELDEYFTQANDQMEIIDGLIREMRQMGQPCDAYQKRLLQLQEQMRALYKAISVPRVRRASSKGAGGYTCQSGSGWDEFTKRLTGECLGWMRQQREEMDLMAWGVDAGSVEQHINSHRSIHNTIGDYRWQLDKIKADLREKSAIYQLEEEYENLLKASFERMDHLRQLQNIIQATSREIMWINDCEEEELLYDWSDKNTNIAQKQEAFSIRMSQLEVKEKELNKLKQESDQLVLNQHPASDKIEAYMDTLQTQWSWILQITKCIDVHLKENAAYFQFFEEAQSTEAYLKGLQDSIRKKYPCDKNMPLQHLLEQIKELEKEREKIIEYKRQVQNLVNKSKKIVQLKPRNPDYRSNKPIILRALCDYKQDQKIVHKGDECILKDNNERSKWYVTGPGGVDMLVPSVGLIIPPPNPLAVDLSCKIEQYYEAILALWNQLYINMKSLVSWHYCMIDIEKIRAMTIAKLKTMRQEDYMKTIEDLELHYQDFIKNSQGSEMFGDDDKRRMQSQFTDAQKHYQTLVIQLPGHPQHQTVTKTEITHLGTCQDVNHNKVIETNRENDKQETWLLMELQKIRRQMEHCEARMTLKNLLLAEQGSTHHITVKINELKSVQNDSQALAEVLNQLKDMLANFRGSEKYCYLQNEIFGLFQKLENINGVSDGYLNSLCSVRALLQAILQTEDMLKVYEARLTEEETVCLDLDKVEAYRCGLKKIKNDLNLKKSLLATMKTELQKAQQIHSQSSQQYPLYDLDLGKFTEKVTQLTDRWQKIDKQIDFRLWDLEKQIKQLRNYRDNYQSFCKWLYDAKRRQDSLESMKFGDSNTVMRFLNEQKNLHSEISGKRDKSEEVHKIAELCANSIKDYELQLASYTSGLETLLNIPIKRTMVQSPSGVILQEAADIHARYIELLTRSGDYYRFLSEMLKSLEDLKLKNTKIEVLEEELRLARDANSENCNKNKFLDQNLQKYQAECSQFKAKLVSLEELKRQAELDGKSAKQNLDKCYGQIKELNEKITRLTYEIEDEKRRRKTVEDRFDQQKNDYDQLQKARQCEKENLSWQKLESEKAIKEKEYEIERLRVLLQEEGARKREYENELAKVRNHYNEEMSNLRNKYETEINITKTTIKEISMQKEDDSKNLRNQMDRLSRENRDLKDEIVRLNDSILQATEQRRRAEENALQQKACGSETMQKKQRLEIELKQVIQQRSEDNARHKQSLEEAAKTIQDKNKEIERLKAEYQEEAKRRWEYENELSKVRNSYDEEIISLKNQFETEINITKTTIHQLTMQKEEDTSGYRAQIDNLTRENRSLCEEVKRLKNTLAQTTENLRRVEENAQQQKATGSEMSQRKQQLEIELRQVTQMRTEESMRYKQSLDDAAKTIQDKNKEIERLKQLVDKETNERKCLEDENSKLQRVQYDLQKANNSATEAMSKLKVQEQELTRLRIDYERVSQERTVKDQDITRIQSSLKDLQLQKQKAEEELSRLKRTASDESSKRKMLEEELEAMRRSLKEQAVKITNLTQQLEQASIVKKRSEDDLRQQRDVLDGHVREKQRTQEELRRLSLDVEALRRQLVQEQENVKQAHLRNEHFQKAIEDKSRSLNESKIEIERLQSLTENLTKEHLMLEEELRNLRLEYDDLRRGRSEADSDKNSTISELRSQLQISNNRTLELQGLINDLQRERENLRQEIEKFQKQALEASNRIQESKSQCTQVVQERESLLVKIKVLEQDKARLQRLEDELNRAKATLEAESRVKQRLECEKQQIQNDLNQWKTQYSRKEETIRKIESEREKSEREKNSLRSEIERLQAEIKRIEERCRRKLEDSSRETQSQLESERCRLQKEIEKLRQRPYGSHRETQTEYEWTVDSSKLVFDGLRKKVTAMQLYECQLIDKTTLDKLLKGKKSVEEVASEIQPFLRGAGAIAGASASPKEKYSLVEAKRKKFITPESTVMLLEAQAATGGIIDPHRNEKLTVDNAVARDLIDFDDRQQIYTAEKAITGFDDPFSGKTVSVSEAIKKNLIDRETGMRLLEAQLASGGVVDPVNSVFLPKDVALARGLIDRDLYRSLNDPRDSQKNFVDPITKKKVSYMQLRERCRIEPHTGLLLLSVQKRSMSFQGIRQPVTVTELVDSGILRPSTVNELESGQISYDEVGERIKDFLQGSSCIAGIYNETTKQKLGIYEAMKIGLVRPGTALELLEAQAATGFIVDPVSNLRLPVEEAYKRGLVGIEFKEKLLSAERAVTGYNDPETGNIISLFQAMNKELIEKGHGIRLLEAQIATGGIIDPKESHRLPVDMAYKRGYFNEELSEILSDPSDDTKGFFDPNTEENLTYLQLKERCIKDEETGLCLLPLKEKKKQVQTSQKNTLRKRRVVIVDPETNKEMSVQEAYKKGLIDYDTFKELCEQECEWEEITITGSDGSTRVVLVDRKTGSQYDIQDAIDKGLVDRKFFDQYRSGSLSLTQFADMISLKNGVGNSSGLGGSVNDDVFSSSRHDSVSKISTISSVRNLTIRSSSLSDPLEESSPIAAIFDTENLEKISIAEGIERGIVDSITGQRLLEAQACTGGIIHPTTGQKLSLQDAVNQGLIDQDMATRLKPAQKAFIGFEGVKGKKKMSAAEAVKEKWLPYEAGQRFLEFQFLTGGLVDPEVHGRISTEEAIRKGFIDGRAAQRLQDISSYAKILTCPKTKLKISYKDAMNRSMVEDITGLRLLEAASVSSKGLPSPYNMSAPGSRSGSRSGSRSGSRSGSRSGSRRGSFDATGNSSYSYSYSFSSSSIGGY
Mpst_IPI:IPI00604945.2 = biological target: T3, Mpst_IPI:IPI00604945.2 (mouse, UniProt Q99J99 2-297)
T3 sequence (looked up): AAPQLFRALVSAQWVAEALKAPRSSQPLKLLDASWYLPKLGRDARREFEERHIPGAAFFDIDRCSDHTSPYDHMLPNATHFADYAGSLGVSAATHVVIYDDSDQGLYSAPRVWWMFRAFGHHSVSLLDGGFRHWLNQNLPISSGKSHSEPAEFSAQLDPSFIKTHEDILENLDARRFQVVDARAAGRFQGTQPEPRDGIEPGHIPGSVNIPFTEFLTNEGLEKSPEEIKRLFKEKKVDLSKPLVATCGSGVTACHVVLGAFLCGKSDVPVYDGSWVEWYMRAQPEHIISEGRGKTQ

Gnao1_IPI:IPI00115546.4 = Gnao1_IPI:IPI00115546.4 (mouse, UniProt P18872 2-354, limits assumed)
Gnao1_IPI:IPI00115546.4, sequence (P18872 2-354 limits assumed): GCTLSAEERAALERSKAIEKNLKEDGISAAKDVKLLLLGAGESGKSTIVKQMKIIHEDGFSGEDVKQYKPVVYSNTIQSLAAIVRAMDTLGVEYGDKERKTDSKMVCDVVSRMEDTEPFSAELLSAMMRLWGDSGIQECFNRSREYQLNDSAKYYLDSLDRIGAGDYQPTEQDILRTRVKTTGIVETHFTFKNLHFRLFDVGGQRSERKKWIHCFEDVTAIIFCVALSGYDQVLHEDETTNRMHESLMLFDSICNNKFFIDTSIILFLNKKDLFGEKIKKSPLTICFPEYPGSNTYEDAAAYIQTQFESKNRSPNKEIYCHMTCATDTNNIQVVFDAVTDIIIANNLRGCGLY
Suclg2_IPI:IPI00459487.3 = biological target: T4, Suclg2_IPI:IPI00459487.3 (mouse, UniProt Q9Z2I8 39-433)
T4 sequence (looked up): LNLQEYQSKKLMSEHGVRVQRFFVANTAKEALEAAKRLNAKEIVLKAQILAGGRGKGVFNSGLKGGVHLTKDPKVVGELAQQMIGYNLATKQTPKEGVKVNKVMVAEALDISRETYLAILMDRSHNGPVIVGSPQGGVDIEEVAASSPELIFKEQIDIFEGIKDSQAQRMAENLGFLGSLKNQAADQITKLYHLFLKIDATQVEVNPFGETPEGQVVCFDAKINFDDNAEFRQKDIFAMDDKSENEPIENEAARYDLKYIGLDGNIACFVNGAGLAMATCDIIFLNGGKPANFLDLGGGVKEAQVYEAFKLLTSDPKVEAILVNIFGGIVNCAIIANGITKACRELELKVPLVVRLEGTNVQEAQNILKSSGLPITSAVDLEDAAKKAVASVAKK

Dnaja3_IPI:IPI00120414.1 = biological target: T5, Dnaja3_IPI:IPI00120414.1 (mouse, UniProt Q99M87 1-480, limits assumed)
T5 sequence (looked up): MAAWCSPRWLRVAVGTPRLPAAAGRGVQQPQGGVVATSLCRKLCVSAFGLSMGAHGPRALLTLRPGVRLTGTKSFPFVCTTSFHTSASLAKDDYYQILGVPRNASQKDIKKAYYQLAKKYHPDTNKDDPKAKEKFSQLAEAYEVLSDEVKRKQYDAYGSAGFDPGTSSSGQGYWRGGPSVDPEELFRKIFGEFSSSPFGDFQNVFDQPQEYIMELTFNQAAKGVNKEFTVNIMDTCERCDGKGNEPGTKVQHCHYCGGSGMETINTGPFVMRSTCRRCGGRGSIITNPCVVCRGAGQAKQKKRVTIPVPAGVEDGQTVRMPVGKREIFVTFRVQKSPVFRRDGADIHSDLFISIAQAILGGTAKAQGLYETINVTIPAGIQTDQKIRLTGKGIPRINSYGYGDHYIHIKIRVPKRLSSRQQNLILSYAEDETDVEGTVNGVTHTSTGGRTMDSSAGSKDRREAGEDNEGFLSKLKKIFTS

Nsf_IPI:IPI00656325.2 = Nsf_IPI:IPI00656325.2 (mouse, UniProt P46460 1-744)
Nsf_IPI:IPI00656325.2, sequence (P46460 whole entry): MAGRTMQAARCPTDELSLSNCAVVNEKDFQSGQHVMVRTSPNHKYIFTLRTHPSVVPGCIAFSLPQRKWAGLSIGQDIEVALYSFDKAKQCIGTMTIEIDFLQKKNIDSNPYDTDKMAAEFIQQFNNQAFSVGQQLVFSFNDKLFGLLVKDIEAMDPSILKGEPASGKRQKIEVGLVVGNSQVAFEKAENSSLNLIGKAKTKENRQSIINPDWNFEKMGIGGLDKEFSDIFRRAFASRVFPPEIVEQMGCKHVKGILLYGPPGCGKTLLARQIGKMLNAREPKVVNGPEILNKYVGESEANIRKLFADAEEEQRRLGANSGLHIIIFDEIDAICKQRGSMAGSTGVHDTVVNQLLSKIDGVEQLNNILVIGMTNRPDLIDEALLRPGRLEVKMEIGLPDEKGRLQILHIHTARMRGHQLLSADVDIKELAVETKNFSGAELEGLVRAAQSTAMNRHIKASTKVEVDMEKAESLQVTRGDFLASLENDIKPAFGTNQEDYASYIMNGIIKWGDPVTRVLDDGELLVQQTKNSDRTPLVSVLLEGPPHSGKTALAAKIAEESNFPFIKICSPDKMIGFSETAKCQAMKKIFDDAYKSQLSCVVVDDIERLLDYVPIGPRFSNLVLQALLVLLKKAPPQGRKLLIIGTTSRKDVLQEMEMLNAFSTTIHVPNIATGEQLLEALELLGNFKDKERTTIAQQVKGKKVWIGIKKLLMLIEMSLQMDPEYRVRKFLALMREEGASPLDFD

binding result (Sfxn5_IPI:IPI00221602.1): no binding | binding result [1]: no binding | binding result (mt-Co2_IPI:IPI00131176.1): no binding | binding result (Atp1a3_IPI:IPI00122048.2): no binding | binding result (Tuba4a_IPI:IPI00117350.1): no binding | binding result (Afg3l2_IPI:IPI00170357.5): no binding | binding result (Dsp_IPI:IPI00553419.3): no binding | binding result (Mpst_IPI:IPI00604945.2): no binding | binding result (Gnao1_IPI:IPI00115546.4): no binding | binding result (Suclg2_IPI:IPI00459487.3): no binding | binding result (Dnaja3_IPI:IPI00120414.1): no binding | binding result (Nsf_IPI:IPI00656325.2): no binding
B1: GST alone (other)
chain: not shown
notes: Negative control of the pull-downs; also called control GST
